Experimental data: patent US20260193317A1, “COMBINATION THERAPY WITH ACTRIIB RECEPTOR VARIANTS AND GLP-1 AGONISTS” (35PHARMA Inc., priority 2023, published 2026)

B1: P1406: hActRIIB L14E, L33W, 19 aa linker, IgG1-DL Fc; SEQ ID 245 (protein)
chain: ETRECIYYNANWEEERTNQSGLERCEGEQDKRWHCYASWRNSSGTIELVKKGCWLDDFNCYDRQECVATEENPQVYFCCCEGNFCNERFTHLPEAGGPEVTYEPPPTGGGGSGGGGSGGGGSGG[human IgG1 Fc and a few adjoining residues not spelt out]
B2: P1409: hActRIIB L14Q, L33W, 19 aa linker, IgG1-DL Fc; SEQ ID 248 (protein)
chain: ETRECIYYNANWEQERTNQSGLERCEGEQDKRWHCYASWRNSSGTIELVKKGCWLDDFNCYDRQECVATEENPQVYFCCCEGNFCNERFTHLPEAGGPEVTYEPPPTGGGGSGGGGSGGGGSGG[human IgG1 Fc and a few adjoining residues not spelt out]
B3: P1185: hActRIIB L33Y G27E, 14 aa linker, IgG1-DL Fc; SEQ ID 197 (protein)
chain: ETRECIYYNANWELERTNQSGLERCEEEQDKRYHCYASWRNSSGTIELVKKGCWLDDFNCYDRQECVATEENPQVYFCCCEGNFCNERFTHLPEAGGPEVTYEPPPTGGGGSGGGGSGG[human IgG1 Fc and a few adjoining residues not spelt out]

Experiments:
[1] = SEC-HPLC monomer and HMW content of purified fusion proteins; format: physicochemical; settings: after Protein A purification
Text: Given that protein aggregation can be indicative of reduced conformational stability and decreased activity, Size-Exclusion Chromatography-High Performance Liquid Chromatography (SEC-HPLC) was used to determine the purity of each ActRIIB-ECD construct. This method measured the percentage of intact monomeric species as well as the presence of aggregates and/or degradation products.
All proteins expressed efficiently in CHO and/or 293 cells and purification efficiency of each using Protein A affinity chromatography was similar.

TGFβ superfamily ligands = experiment: Neutralization profile across TGFβ superfamily ligands (HEK293 and HepG2 reporter assays, summary); format: cell-based, human
Experimental: Potency testing by neutralization on cell-based assays. Characterization of the activin A, activin B, GDF-8, and GDF-11 inhibition potency (IC50) of the fusion proteins was performed using a cell-based reporter assay. TGFβ-reporter HEK293 cells were obtained from InvivoGen (San Diego, CA, cat. no. hkb-tgfb) and were maintained following the manufacturer's instructions. Briefly, cells were grown in high-glucose DMEM, containing 10% heat-inactivated FBS, 30 μg/mL blasticidin, 250 μg/mL hygromycin B, and 100 μg/mL zeocin (hereafter, “growth medium”). Once the cells reached 70-80% confluence, they were detached in growth medium by gently tapping on the flask. For all assays, cells were seeded in 96-well plates at a density of 20,000 cells per well in growth medium. Cells were left to attach for 10 minutes at room temperature (RT) prior to being transferred to a 37° C. incubator (5% CO2) overnight. The next day, treatments were prepared by combining the appropriate concentration of agent with activin A, activin B, GDF-8, or GDF-11 for 30 min at RT (shaking at 150 rpm). Treatments were conducted in high-glucose DMEM (serum-free and with no selection agents), and the final concentration of cytokine (ligand) was 0.3 nM. Growth medium was removed from the culture plates, and cells were treated with the appropriate mixes of fusion protein and cytokine. Treatment duration was for 18-22 h at 37° C. (5% CO2). All treatments were performed in technical duplicates and at least one or two independent experiments were conducted for each cytokine. At the end of the treatment period, supernatants were transferred to a new plate, and centrifuged at 300 RPM for 3 min. Forty microlitres of supernatant from each condition was transferred to a new plate, into which 180 μL of Quanti-Blue reagent (InvivoGen, cat. no. rep-qbs) was added. Quanti-Blue reagent was prepared following the manufacturer's instructions. Samples were incubated for 45 min at 37° C. At the end of the incubation, absorbance was read at 650 nm. The data were plotted in GraphPad Prism, which was used to calculate IC50 values as a non-linear regression.
Characterization of the BMP-9 and BMP-10 inhibition potency (IC50) of the fusion proteins was performed using a second cell-based reporter assay. Human hepatic HepG2 cells were transfected with a SEAP-encoding plasmid, in which SEAP expression is under the control of the murine Id1 promoter. A stable pool was generated from this transfection. Cells were grown in EMEM, containing 10% heat-inactivated FBS and 200 μg/mL zeocin (hereafter, “HepG2 growth medium”). […] For all assays, cells were seeded in 96-well plates at a confluence of 100,000 cells per well in HepG2 growth medium. Cells were left to attach for 10 minutes at RT prior to being transferred to a 37° C. incubator (5% CO2) overnight. The next day, treatments were prepared in EMEM (2.5% heat-inactivated FBS and with no selection agents) by combining the appropriate concentration of agent with BMP-9 or BMP-10 for 30 min at RT (shaking at 150 rpm). Treatments were conducted in EMEM (2.5% heat-inactivated FBS and with no selection agents), and the final concentration of BMP-9 and BMP-10 was 2 ng/mL and 40 ng/mL, respectively. HepG2 growth medium was removed from the culture plates, and cells were treated with the appropriate mixes of fusion protein and cytokine. Treatment duration was for 20-24 h at 37° C. (5% CO2). All treatments were performed in technical duplicates and at least one or two independent experiments were conducted for each cytokine. At the end of the treatment period, supernatants were transferred to a new plate, and centrifuged at 300 RPM for 3 min. Forty microlitres of supernatant from each condition was transferred to a new plate, onto which 180 μL of Quanti-Blue reagent was added. Quanti-Blue reagent was prepared following the manufacturer's instructions. Samples were incubated for 5-6 h with Quanti-Blue reagent at 37° C. […]

[2] = Single-injection body weight gain in wild-type mice; format: in vivo; settings: single 25 mg/kg subcutaneous injection, after 4 days, vs vehicle
Experimental: To investigate the target engagement of exemplary ActRIIB-ECD polypeptide constructs in vivo, mice (n=6/group) were injected with given agents (25 mg/kg, subcutaneous injection), and sacrificed after 4 days to assess body weight gain.

BMP-9 = biological target: T1, BMP-9 (Homo sapiens, UniProt Q9UK05); experiment: Small-scale BMP-9 ELISA with CHO supernatants; format: binding; settings: BMP-9 10 ng/mL
T1 sequence (Q9UK05 320-429): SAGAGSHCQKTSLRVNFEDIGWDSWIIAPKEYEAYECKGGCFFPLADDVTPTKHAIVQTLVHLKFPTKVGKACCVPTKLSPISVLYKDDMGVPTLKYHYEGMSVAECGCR

activin A = biological target: T2, activin A (Homo sapiens, UniProt P08476); experiment: Small-scale activin A ELISA with CHO supernatants; settings: 1 μg/mL protein, 30 ng/mL activin A, loss of signal = binding
T2 sequence (P08476 311-426): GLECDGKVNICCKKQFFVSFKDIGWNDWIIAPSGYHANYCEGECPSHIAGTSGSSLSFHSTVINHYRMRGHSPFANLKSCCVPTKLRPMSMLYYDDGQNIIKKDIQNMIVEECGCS
How it was run: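 ActRIIB-ECD-Fc fusions were expressed transiently in CHO cells and harvested after 7 days. Supernatant protein at 1 μg/mL final was premixed with human activin A at 30 ng/mL final and incubated 1 h at RT on an anti-activin A antibody plate. Loss of signal was expressed as % of wild-type ActRIIB-Fc.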

BMP-10 = biological target: T3, BMP-10 (Homo sapiens, UniProt O95393); experiment: BMP-reporter HepG2 cell-based assay: BMP-10 neutralization
T3 sequence (O95393 317-424): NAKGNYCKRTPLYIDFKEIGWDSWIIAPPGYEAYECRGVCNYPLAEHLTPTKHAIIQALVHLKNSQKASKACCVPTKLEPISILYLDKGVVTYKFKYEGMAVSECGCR
Experimental: Characterization of the BMP-9 and BMP-10 inhibition potency (IC50) of the fusion proteins was performed using a second cell-based reporter assay. Human hepatic HepG2 cells were transfected with a SEAP-encoding plasmid, in which SEAP expression is under the control of the murine Id1 promoter. A stable pool was generated from this transfection. Cells were grown in EMEM, containing 10% heat-inactivated FBS and 200 μg/mL zeocin (hereafter, “HepG2 growth medium”). […] For all assays, cells were seeded in 96-well plates at a confluence of 100,000 cells per well in HepG2 growth medium. Cells were left to attach for 10 minutes at RT prior to being transferred to a 37° C. incubator (5% CO2) overnight. The next day, treatments were prepared in EMEM (2.5% heat-inactivated FBS and with no selection agents) by combining the appropriate concentration of agent with BMP-9 or BMP-10 for 30 min at RT (shaking at 150 rpm). Treatments were conducted in EMEM (2.5% heat-inactivated FBS and with no selection agents), and the final concentration of BMP-9 and BMP-10 was 2 ng/mL and 40 ng/mL, respectively. HepG2 growth medium was removed from the culture plates, and cells were treated with the appropriate mixes of fusion protein and cytokine. Treatment duration was for 20-24 h at 37° C. (5% CO2). All treatments were performed in technical duplicates and at least one or two independent experiments were conducted for each cytokine. At the end of the treatment period, supernatants were transferred to a new plate, and centrifuged at 300 RPM for 3 min. Forty microlitres of supernatant from each condition was transferred to a new plate, onto which 180 μL of Quanti-Blue reagent was added. Quanti-Blue reagent was prepared following the manufacturer's instructions. Samples were incubated for 5-6 h with Quanti-Blue reagent at 37° C. At the end of the incubation, absorbance was read at 650 nm. The data were plotted in GraphPad Prism, which was used to calculate IC50 values as a non-linear regression.

Molecule | high molecular weight (HMW) content (SEC-HPLC) [1] [%] | monomer content (SEC-HPLC) [1] [%] | inhibition of BMP-9 or BMP-10 (TGFβ superfamily ligands) | body weight gain [2] | BMP-9 binding, ELISA signal relative to P75 (BMP-9) | activin A binding, ELISA signal relative to P75 (activin A) | improved potency on activin A, GDF-8, and GDF-11 relative to P75 (TGFβ superfamily ligands) | inhibition potency on BMP-10 relative to P75 (BMP-10)
B1 | 3 | 97 | minimal inhibition of either BMP-9 or BMP-10 | apparent body weight gain that did not reach statistical significance | near-undetectable binding to BMP-9 | – | – | –
B2 | 2 | 98 | minimal inhibition of either BMP-9 or BMP-10 | statistically significant body weight gain | near-undetectable binding to BMP-9 | potent activin A binding | ~ 4 fold | –
B3 | 3 | 96 | – | statistically significant body weight gain | – | – | – | unchanged or modestly reduced
